Experimental data as given in paper PMC9911399, “Two distinct binding modes provide the RNA-binding protein RbFox with extraordinary sequence specificity”.
Residue numbers refer to the chain shown, from its start. This is one part of the list.

B1: UGGGCAA (DNA:RNA)
RNA: GGGAGACCGGAAUUCAGAUUGUCCUGGGCAAUUAAAUCCCGUCGUAGCCACCA
DNA 1: CAATCTGAATTCCGGTCTCCC
DNA 2: TGGTGGCTACGACGGGATT
B2: UGUGACU (DNA:RNA)
RNA: B1 RNA with G27U, C29A, A30C, A31U
DNA 1: CAATCTGAATTCCGGTCTCCC
DNA 2: TGGTGGCTACGACGGGATT
B3: AUGGCUU (DNA:RNA)
RNA: B1 RNA with U25A, G26U, A30U, A31U
DNA 1: CAATCTGAATTCCGGTCTCCC
DNA 2: TGGTGGCTACGACGGGATT
B4: AUGUCUG (DNA:RNA)
RNA: B1 RNA with U25A, G26U, G28U, A30U, A31G
DNA 1: CAATCTGAATTCCGGTCTCCC
DNA 2: TGGTGGCTACGACGGGATT
B5: GGCGCGA (DNA:RNA)
RNA: B1 RNA with U25G, G27C, A30G
DNA 1: CAATCTGAATTCCGGTCTCCC
DNA 2: TGGTGGCTACGACGGGATT
B6: AAGUCGA (DNA:RNA)
RNA: B1 RNA with U25A, G26A, G28U, A30G
DNA 1: CAATCTGAATTCCGGTCTCCC
DNA 2: TGGTGGCTACGACGGGATT
B7: UUGGUUU (DNA:RNA)
RNA: B1 RNA with G26U, C29U, A30U, A31U
DNA 1: CAATCTGAATTCCGGTCTCCC
DNA 2: TGGTGGCTACGACGGGATT
B8: GACCAGU (DNA:RNA)
RNA: GGGAGACCGGAAUUCAGAUUGUCCGACCAGUUUAAAUCCCGUCGUAGCCACCA
DNA 1: CAATCTGAATTCCGGTCTCCC
DNA 2: TGGTGGCTACGACGGGATT
B9: UAUAGAU (DNA:RNA)
RNA: B8 RNA with G25U, C27U, C28A, A29G, G30A
DNA 1: CAATCTGAATTCCGGTCTCCC
DNA 2: TGGTGGCTACGACGGGATT

Target: T1, RBFOX1 RRM RbFoxmut (Fox-RRM*) (Homo sapiens, UniProt Q9NWB1 109-208, R118D;E147R;N151S;E152T)
T1 sequence: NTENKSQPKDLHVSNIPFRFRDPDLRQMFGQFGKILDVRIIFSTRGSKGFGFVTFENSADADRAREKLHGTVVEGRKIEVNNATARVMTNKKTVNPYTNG
Assay: EMSA; HiTS-Eq, 1 nM pool, 10 min; buffer printed only for the single-RNA assays: 10 mM Tris pH 7.5, 150 mM NaCl, 3.4 mM EDTA, 0.001% NP-40, 30 C
Settings: tags: His6 N-terminal (pET28a); label: 5' 32P
Summary of the method: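 These values rest on relative association constants, computed from read-count changes of each RNA species versus the control reaction and normalised to the cognate motif. Reads came from free RNA recovered by 8% native PAGE after purified RbFox RRM (wild type or mutant) at increasing concentrations was equilibrated for 10 min in 50 µL with 1 nM of a 5′-radiolabelled pool with 7 randomized nucleotides and DNA-annealed flanks.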

Binder	binding signal
B1	0.0613 KA relative to UGCAUGU
B2	0.0758 KA relative to UGCAUGU
B3	0.113 KA relative to UGCAUGU
B4	0.175 KA relative to UGCAUGU
B5	0.0964 KA relative to UGCAUGU
B6	0.0793 KA relative to UGCAUGU
B7	0.1 KA relative to UGCAUGU
B8	0.0748 KA relative to UGCAUGU
B9	0.0672 KA relative to UGCAUGU
